According to the supplement of paper PMC10320760:
Single values of this set are uncertain.

B1: Ydj1; a variant is named by its letters at X, in order (parent)
chain: MVKETKFYDILGVPVTATDVEIKKAYRKCALKYHPDKNPSEEAAEKFKEASAAYEILSDPEKRDIYDQFGEDGLSGAGGAGGFPGGGFGFGDDIFSQFFGAGGAQRPRGPQRGKDIKHEISASLEELYKGRTAKLALNKQILCKECEGRGGKKGAVKKCTSCNGQGIKFVTRQMGPMIQRFQTECDVCHGTGDIIDPKDRCKSCNGKKVENERKILEVHVEPGMKDGQRIVFKGEADQAPDVIPGDVVFIVSERPHKSFKRDGDDLVYEAEIDLLTAIAGGEFALEHVSGDWLKVGIVPGEVIAPGMRKVIEGKGMPIPKYGGYGNLIIKFTIKFPENHFTSEENLKKLEEILPPRIVPAIPKKATVDECVLADFDPAKYNRTRASRGGANYDSDEEEQGGEGVQCXXX

Variants of: B1
Experiment: enrichment factor, frequency at 37 °C / frequency at 25 °C (thermotolerance selection) (ratio); higher = more growth at 37 °C, higher likelihood of farnesylation
Conditions: with Saccharomyces cerevisiae ydj1Δ (yWS304); selective temperature 37 °C; reference temperature 25 °C
Experimental: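 Pooled library of all 8,000 Ydj1-CXXX C-terminal motif variants (native CASQ replaced by C + three variable residues, one codon per amino acid) expressed from a CEN plasmid in S. cerevisiae ydj1Δ (yWS304). The library was grown in SC-Ura liquid to A600 ~2 (~8 generations) at permissive 25 °C or selective 37 °C. Reads from 8 and 7 replicates were pooled and variants counted by NGS. Enrichment factor = frequency at 37 °C / frequency at 25 °C, with a +1 correction; it reports Ydj1-dependent thermotolerance, used as a read-out of farnesylation by yeast FTase.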

Row | Variant | enrichment factor
1 | GCG | 2.13
2 | HCG | 1.24
3 | ACG | 1.21
4 | ICG | 0.837
5 | KCG | 1.29
6 | LCG | 0.353
7 | MCG | 1.53
8 | CCG | 0.165
9 | NCG | 1.45
10 | PCG | 0.531
11 | QCG | 1.27
12 | RCG | 1.25
13 | SCG | 0.993
14 | TCG | 0.842
15 | VCG | 0.74
16 | WCG | 0.869
17 | YCG | 2.32
18 | DCG | 0.334
19 | ECH | 0.79
20 | FCH | 0.869
21 | GCH | 1.43
22 | HCH | 2.97
23 | ACH | 1.12
24 | ICH | 0.735

Row | Variant | enrichment factor
25 | KCH | 1.65
26 | LCH | 0.477
27 | MCH | 1.83
28 | CCH | 0.178
29 | NCH | 2.33
30 | PCH | 0.676
31 | QCH | 2.03
32 | RCH | 2.36
33 | SCH | 0.965
34 | TCH | 2.12
35 | VCH | 1.68
36 | WCH | 0.252
37 | YCH | 2.35
38 | DCH | 0.784
39 | ECI | 0.691
40 | FCI | 2.9
41 | GCI | 0.29
42 | HCI | 1.01
43 | ICI | 0.734
44 | ACI | 0.73
45 | KCI | 0.217
46 | LCI | 0.281
47 | MCI | 0.279
48 | CCI | 0.334

Row | Variant | enrichment factor
49 | NCI | 0.499
50 | PCI | 0.938
51 | QCI | 0.629
52 | RCI | 0.52
53 | SCI | 0.805
54 | TCI | 1.31
55 | VCI | 1.1
56 | WCI | 0.579
57 | YCI | 1.32
58 | DCI | 0.274
59 | ECK | 1.31
60 | FCK | 0.159
61 | GCK | 0.124
62 | HCK | 0.312
63 | ICK | 1.24
64 | ACK | 1.68
65 | KCK | 0.204
66 | LCK | 0.946
67 | MCK | 0.454
68 | CCK | 0.657
69 | NCK | 0.506
70 | PCK | 0.758
71 | QCK | 1
72 | RCK | 0.994

Row | Variant | enrichment factor
73 | SCK | 0.815
74 | TCK | 1.4
75 | VCK | 1.98
76 | WCK | 0.389
77 | YCK | 0.251
78 | DCK | 0.122
79 | ECL | 1.3
80 | FCL | 1.16
81 | GCL | 0.927
82 | HCL | 0.944
83 | ICL | 0.699
84 | ACL | 1.18
85 | KCL | 0.523
86 | LCL | 0.29
87 | MCL | 0.664
88 | CCL | 0.804
89 | NCL | 1.51
90 | PCL | 1.46
91 | QCL | 1.56
92 | RCL | 0.734
93 | SCL | 0.966
94 | TCL | 1.42
95 | VCL | 1.39
96 | WCL | 1.45

Row | Variant | enrichment factor
97 | YCL | 1.36
98 | DCL | 0.334
99 | ECM | 0.806
100 | FCM | 0.579
101 | GCM | 1.82
102 | HCM | 2.28
103 | ICM | 0.724
104 | ACM | 1.7
105 | KCM | 0.647
106 | LCM | 0.827
107 | MCM | 0.463
108 | CCM | 0.886
109 | NCM | 1.33
110 | PCM | 0.908
111 | QCM | 0.95
112 | RCM | 1.51
113 | SCM | 0.49
114 | TCM | 1.19
115 | VCM | 0.74
116 | WCM | 0.772
117 | YCM | 1.62
118 | DCM | 0.579
119 | ECN | 2.79
120 | FCN | 3.23

Row | Variant | enrichment factor
121 | GCN | 2.09
122 | HCN | 1.41
123 | ICN | 0.922
124 | KCN | 2.34
125 | ACN | 1.82
126 | LCN | 0.923
127 | MCN | 0.899
128 | CCN | 0.354
129 | NCN | 1.63
130 | PCN | 1.46
131 | QCN | 1.65
132 | RCN | 0.927
133 | SCN | 0.526
134 | TCN | 1.39
135 | VCN | 1.95
136 | WCN | 3.59
137 | YCN | 4.21
138 | DCN | 1.24
139 | ECP | 0.139
140 | FCP | 1.95
141 | GCP | 0.158
142 | HCP | 1.61
143 | ICP | 0.137
144 | KCP | 0.196

Row | Variant | enrichment factor
145 | ACP | 0.212
146 | LCP | 0.236
147 | MCP | 0.133
148 | CCP | 0.371
149 | NCP | 0.156
150 | PCP | 0.184
151 | QCP | 0.2
152 | RCP | 0.0824
153 | SCP | 0.113
154 | TCP | 0.129
155 | VCP | 0.151
156 | WCP | 0.434
157 | YCP | 1.83
158 | DCP | 0.123
159 | ECQ | 1.6
160 | FCQ | 2.78
161 | GCQ | 1.78
162 | HCQ | 0.948
163 | ICQ | 1
164 | KCQ | 0.369
165 | ACQ | 0.94
166 | LCQ | 0.843
167 | MCQ | 1.73
168 | CCQ | 0.452

Row | Variant | enrichment factor
169 | NCQ | 0.745
170 | PCQ | 1.04
171 | QCQ | 0.319
172 | RCQ | 0.853
173 | SCQ | 0.556
174 | TCQ | 0.719
175 | VCQ | 1.56
176 | WCQ | 1.22
177 | YCQ | 2.21
178 | DCQ | 1.39
179 | ECR | 0.259
180 | FCR | 0.175
181 | GCR | 0.171
182 | HCR | 0.166
183 | ICR | 0.18
184 | KCR | 0.133
185 | ACR | 0.242
186 | LCR | 0.181
187 | MCR | 0.169
188 | CCR | 0.262
189 | NCR | 0.103
190 | PCR | 0.17
191 | QCR | 0.259
192 | RCR | 0.131

Row | Variant | enrichment factor
193 | SCR | 0.185
194 | TCR | 0.282
195 | VCR | 0.659
196 | WCR | 0.287
197 | YCR | 0.166
198 | DCR | 0.143
199 | ECS | 0.434
200 | FCS | 0.901
201 | GCS | 1.59
202 | HCS | 0.312
203 | ICS | 1.1
204 | KCS | 0.549
205 | LCS | 0.588
206 | ACS | 0.91
207 | MCS | 1.66
208 | CCS | 1.02
209 | NCS | 0.521
210 | PCS | 0.632
211 | QCS | 0.901
212 | RCS | 0.772
213 | SCS | 0.842
214 | TCS | 0.624
215 | VCS | 0.846
216 | WCS | 1.8

Row | Variant | enrichment factor
217 | YCS | 3.09
218 | DCS | 1.71
219 | ECT | 0.938
220 | FCT | 1.26
221 | GCT | 1.18
222 | HCT | 0.796
223 | ICT | 1.38
224 | KCT | 0.655
225 | LCT | 0.642
226 | ACT | 0.424
227 | MCT | 1.36
228 | CCT | 0.621
229 | NCT | 1.24
230 | PCT | 1.46
231 | QCT | 1.05
232 | RCT | 0.274
233 | SCT | 0.409
234 | TCT | 0.869
235 | VCT | 2.05
236 | WCT | 0.136
237 | YCT | 3.64
238 | DCT | 1.28
239 | ECV | 0.491
240 | FCV | 2.32

Row | Variant | enrichment factor
241 | GCV | 0.931
242 | HCV | 0.404
243 | ICV | 0.837
244 | KCV | 0.258
245 | LCV | 0.356
246 | ACV | 0.707
247 | MCV | 0.863
248 | CCV | 0.221
249 | NCV | 0.369
250 | PCV | 1.25
251 | QCV | 0.431
252 | RCV | 0.493
253 | SCV | 0.342
254 | TCV | 0.643
255 | VCV | 1.12
256 | WCV | 0.901
257 | YCV | 3.85
258 | DCV | 0.774
259 | ECW | 0.364
260 | FCW | 0.599
261 | GCW | 0.266
262 | HCW | 0.431
263 | ICW | 0.166
264 | KCW | 0.149

Row | Variant | enrichment factor
265 | LCW | 0.254
266 | ACW | 1
267 | MCW | 0.823
268 | CCW | 3.47
269 | NCW | 0.259
270 | PCW | 0.727
271 | QCW | 0.393
272 | RCW | 0.294
273 | SCW | 0.303
274 | TCW | 1.14
275 | VCW | 3.41
276 | WCW | 0.394
277 | YCW | 0.768
278 | DCW | 0.225
279 | ECY | 0.676
280 | FCY | 1.01
281 | GCY | 1.37
282 | HCY | 2.73
283 | ICY | 0.851
284 | KCY | 0.793
285 | LCY | 0.499
286 | MCY | 1.77
287 | ACY | 1.86
288 | CCY | 0.252

Row | Variant | enrichment factor
289 | NCY | 0.475
290 | PCY | 0.679
291 | QCY | 0.526
292 | RCY | 1.18
293 | SCY | 1.04
294 | TCY | 0.792
295 | VCY | 2.62
296 | WCY | 0.724
297 | YCY | 2.56
298 | DCY | 1.18
299 | EDA | 0.201
300 | FDA | 0.151
301 | GDA | 0.144
302 | HDA | 0.185
303 | IDA | 0.182
304 | KDA | 0.201
305 | LDA | 0.186
306 | MDA | 0.204
307 | ADA | 0.169
308 | CDA | 0.183
309 | NDA | 0.236
310 | PDA | 0.154
311 | QDA | 0.143
312 | RDA | 0.129

Row | Variant | enrichment factor
313 | SDA | 0.11
314 | TDA | 0.21
315 | VDA | 0.408
316 | WDA | 1.16
317 | YDA | 0.159
318 | DDA | 0.116
319 | EDC | 0.167
320 | FDC | 0.224
321 | GDC | 0.0958
322 | HDC | 0.238
323 | IDC | 0.625
324 | KDC | 0.197
325 | LDC | 0.463
326 | MDC | 0.147
327 | ADC | 0.465
328 | CDC | 0.515
329 | NDC | 0.2
330 | PDC | 0.16
331 | QDC | 0.22
332 | RDC | 0.476
333 | SDC | 0.143
334 | TDC | 0.299
